{"source": "PubChem BioAssay AID1466", "about": "(National Center for Advancing Translational Sciences (NCATS), 2008)", "note": "The campaign covered roughly 200,000 compounds. About 10 (0.005%) were called active. The inconclusive results got no clear call from the source; some entries with a clear call stand among them for comparison. Calls come from the whole dose curve; as a rule, active = well fitted inhibition curve with a large enough effect; inconclusive = small, poorly fitted or top-dose-only effect, or effect the other way, or another doubt; inactive = no such curve, though single readings can be large or run the other way. No potency is given beside an inconclusive call; the fits are too rough. Potency is the fitted concentration of half-maximal effect; tags give direction and shape of the fitted curve."}
{"target": "Lysosomal alpha-glucosidase (Homo sapiens) (UniProt P10253)", "test": "qHTS Assay for Inhibitors of Human alpha-Glucosidase as a Potential Chaperone Treatment of Pompe Disease;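 for activity change, negative = inhibition: plate controls were uninhibited enzyme wells for no effect and no-enzyme background for full effect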", "conditions": "purified human GAA, 4-MU-alpha-glucoside fluorescence; activity change, negative = inhibition: at 76.9 µM (top of the series) unless noted", "outline": "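Human enzyme at 4 nM with 400 uM 4-methylumbelliferyl-alpha-D-pyranoside, citrate/phosphate buffer pH 5.0, 0.005% Tween-20, 20 min at room temperature. Compounds up to 77 uM. 4-MU fluorescence (Ex 365/Em 440) read after NaOH/glycine stop; AC50 from Hill fit.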"}
{"smiles": "COc1ccc(CNC(=O)CN(Cc2ccc(F)cc2)C(=O)c2csnn2)cc1", "Potency": "inconclusive [inhibitor, single point]"}
{"smiles": "COc1ccc2c(c1)c1ncn(Cc3ccco3)c(=O)c1n2C", "Potency": "inconclusive [activator, partial curve]"}
{"smiles": "O=C(NC(=S)Nc1ccccc1N1CCOCC1)c1ccc([N+](=O)[O-])cc1", "Potency": "inconclusive [inhibitor, single point]"}
{"smiles": "Cc1c(N2C(=O)/C(=C3/C(=O)N(C)c4ccccc43)SC2=S)c(=O)n(-c2ccccc2)n1C", "activity change, negative = inhibition": "inactive: 0.116%"}
{"smiles": "Cc1ccc(S(=O)(=O)N2CCOCC2)cc1NC(=O)COC(=O)c1cccnc1Cl", "Potency": "inconclusive [inhibitor, single point]"}
{"smiles": "O=C1CC(c2ccc(OCCCCCOc3ccc(C4CC(=O)NC4=O)cc3)cc2)C(=O)N1", "note": "(stereo not drawn)", "activity change, negative = inhibition": "inactive: 1.72% [at 15.4 µM]"}
{"smiles": "COC(=O)c1cc(NC(=O)Cc2coc3cc(OC)ccc23)cc(C(=O)OC)c1", "Potency": "inconclusive [inhibitor, partial curve]"}
{"smiles": "Cc1ccc(NC(=O)CSc2nnc(-c3cccnc3)s2)cc1", "Potency": "inconclusive [inhibitor, single point]"}
{"smiles": "O=C1C2C3C=CC(c4ccccc4)(C2C(=O)N1c1cccc(Cl)c1)C1C(=O)N(c2cccc(Cl)c2)C(=O)C31", "note": "(stereo not drawn)", "Potency": "inconclusive [inhibitor, full curve, poor fit]"}
{"smiles": "O=C(CN1CCN(c2ccc(F)cc2)CC1)Nc1ccccc1[N+](=O)[O-]", "activity change, negative = inhibition": "inconclusive: -17.2% [inhibitor]"}
{"smiles": "O=c1oc2ccccc2c2c1SC(C(F)(F)F)C2", "note": "(stereo not drawn)", "Potency": "inconclusive [activator, partial curve]"}
{"smiles": "Cc1cc(S(=O)(=O)NCc2ccccc2)ccc1OCC(=O)N1CCOCC1", "Potency": "inconclusive [inhibitor, partial curve]"}
{"smiles": "CCC(=O)Nc1cccc(NC(=S)NC(=O)c2ccc(Cl)cc2Cl)c1", "Potency": "inconclusive [inhibitor, single point]"}
{"smiles": "Cc1ccc(Nc2ncnc3ccccc23)cc1", "activity change, negative = inhibition": "inactive: 2.16%"}
{"smiles": "N#Cc1nc(Cc2ccccc2)oc1N1CCN(c2ccccc2)CC1", "activity change, negative = inhibition": "inconclusive: -15.2% [inhibitor]"}
{"smiles": "CN(C)S(=O)(=O)N1CCCN(S(=O)(=O)N(C)C)CC1", "Potency": "inconclusive [inhibitor, full curve, poor fit]"}
{"smiles": "COc1ccc(C2c3c(ncn(Cc4ccco4)c3=N)Oc3ccc4ccccc4c32)cc1", "note": "(stereo not drawn)", "Potency": "inconclusive [inhibitor, full curve]"}
{"smiles": "CC(C)C(=O)NCCc1nc2ccccc2n1CCc1ccccc1", "Potency": "inconclusive [inhibitor, single point]"}
{"smiles": "Cc1ccc(S(=O)(=O)N2CCCC2C(=O)N2CCCCCC2)cc1", "note": "(stereo not drawn)", "Potency": "inconclusive [inhibitor, full curve, poor fit]"}
{"smiles": "COC(=O)c1c(NC(C)=O)sc(C(=O)Nc2ccccc2)c1C", "Potency": "inconclusive [inhibitor, full curve]"}
{"smiles": "Cc1ccc(CNC(=O)c2cn(C3CCCCC3)c(=O)c3c2c2ccccc2n3C)o1", "Potency": "inconclusive [inhibitor, single point]"}
{"smiles": "COc1cccc(NC(=O)Nc2ccc(Cc3ccncc3)cc2)c1", "Potency": "inconclusive [inhibitor, single point]"}
{"smiles": "Oc1ccc(N2CCN(C(=S)NCCc3ccccc3)CC2)cc1", "activity change, negative = inhibition": "inactive: 7.54%"}
{"smiles": "Nc1nc(-c2cccnc2)nc2sc3c(c12)CCCC3", "activity change, negative = inhibition": "inconclusive: 15% [activator]"}
{"smiles": "Cc1ccn2cc(-c3cnoc3C)nc2c1", "Potency": "inconclusive [activator, single point]"}
{"smiles": "CCOC(=O)c1cccnc1SC(CC)C(=O)NCc1ccco1", "note": "(stereo not drawn)", "Potency": "inconclusive [inhibitor, partial curve, poor fit]"}
{"smiles": "CCN1C(=O)C(CC(=O)Nc2ccc(OC)cc2)N(Cc2cccnc2)C1=S", "note": "(stereo not drawn)", "Potency": "inconclusive [inhibitor, single point]"}
{"smiles": "CC1=CC2=NCC(O)CN2C=C1", "note": "(stereo not drawn)", "Potency": "inconclusive [activator, single point]"}
{"smiles": "CC(=O)Nc1ccc(N2CCCCC2)c(C(=O)Nc2cccc(C)c2)c1", "Potency": "inconclusive [inhibitor, single point]"}
{"smiles": "CCOc1cc(CNCCc2ccc(S(N)(=O)=O)cc2)ccc1OCc1ccccc1", "Potency": "inconclusive [inhibitor, partial curve, poor fit]"}
{"smiles": "COc1ccc2cc3cc(C(=O)NC(C)C)oc3nc2c1", "Potency": "inconclusive [activator, partial curve]"}
{"smiles": "COc1ccc(-n2c(COc3cccc4ccccc34)nnc2SCC(=O)NCc2ccco2)cc1", "Potency": "inconclusive [inhibitor, single point]"}
{"smiles": "c1ccc(CC2CCN(C3=Nc4cccc5cccc3c45)CC2)cc1", "activity change, negative = inhibition": "inactive: -0.872%"}
{"smiles": "CC(=O)N(c1ccc(Cl)cc1)c1nc(C)cc(C)c1C#N", "Potency": "inconclusive [inhibitor, single point]"}
{"smiles": "COc1ccc(Nc2nc(Cl)nc(Nc3ccc(OC)cc3OC)n2)c(OC)c1", "Potency": "inconclusive [activator, full curve, poor fit]"}
{"smiles": "CC(=O)Nc1ccc(Nc2ncnc3c2cnn3-c2cccc(C)c2)cc1", "Potency": "inconclusive [activator, single point]"}
{"smiles": "Cc1cc(N2CCN(C3CCCCC3)CC2)n2nc(C)nc2n1", "Potency": "inconclusive [inhibitor, single point]"}
{"smiles": "CC1C/C(=C/c2cccn2C)C(=O)/C(=C/c2cccn2C)C1", "note": "(stereo not drawn)", "Potency": "inconclusive [inhibitor, partial curve]"}
{"smiles": "CCOC(=O)Cc1csc(NC(=O)NC2(C(F)(F)F)Oc3cc(Cl)c(Cl)cc3O2)n1", "activity change, negative = inhibition": "inactive: -0.475%"}
{"smiles": "CC[C@@H](NS(=O)(=O)c1ccc(C)cc1)C(=O)Oc1ccc2c3c(c(=O)oc2c1)CCC3", "Potency": "inconclusive [activator, single point]"}
{"smiles": "CC(=O)Nc1ccc2c(c1)OCO2", "activity change, negative = inhibition": "inactive: -2.49%"}
{"smiles": "COc1ccc(C2=Nc3cccc4cccc(c34)N2)cc1", "activity change, negative = inhibition": "inactive: 9.81%"}
{"smiles": "C=CCn1c2ccccc2c2nnc(SCC(=O)NC(C(=O)OC)C(C)C)nc21", "note": "(stereo not drawn)", "activity change, negative = inhibition": "inactive: -2.6%"}
{"smiles": "CCCN1CCN(c2ccc([N+](=O)[O-])cc2C#N)CC1", "Potency": "inconclusive [inhibitor, single point]"}
{"smiles": "OCc1ncccc1O", "activity change, negative = inhibition": "inconclusive: -15.1% [inhibitor]"}
{"smiles": "O=C(O)CC1=C(O)C(=O)N(c2ccccc2)C1c1ccccc1", "note": "(stereo not drawn)", "activity change, negative = inhibition": "inactive: -12.2%"}
{"smiles": "COCCCN1C(=O)c2ccc(C(=O)Nc3cccc(OC)c3)cc2C1=O", "Potency": "inconclusive [inhibitor, single point]"}
{"smiles": "Cc1cc(SCC(=O)c2ccc3c(c2)OCO3)nc2ccccc12", "Potency": "inconclusive [inhibitor, full curve]"}
{"smiles": "COc1ccc(/C(N)=N/OC(=O)c2cccs2)cc1OC", "activity change, negative = inhibition": "inconclusive: 20.9% [activator]"}
{"smiles": "Cn1c(=O)c2c(nc(CN3CCc4ccccc4C3)n2Cc2ccccc2)n(C)c1=O", "Potency": "inconclusive [inhibitor, full curve, poor fit]"}
{"smiles": "Cc1ccc(NC(=O)Cn2cccc2C2=NC(c3ccccc3)CO2)c(C)c1", "note": "(stereo not drawn)", "Potency": "inconclusive [inhibitor, partial curve, poor fit]"}
{"smiles": "COc1ccc(/C=C2/N=C(c3cccs3)OC2=O)cc1OC(C)C", "Potency": "inconclusive [inhibitor, partial curve]"}
{"smiles": "COc1ccccc1/C=C(/NC(=O)c1ccc(Cl)cc1Cl)C(=O)O", "Potency": "inconclusive [inhibitor, single point]"}
{"smiles": "COC(=O)Cc1cc(=O)oc2cc(OC)ccc12", "activity change, negative = inhibition": "inconclusive: 16% [activator]"}
{"smiles": "CN=C(Nc1ccccc1OC)SC1CC(=O)N(c2ccc(C(=O)OC)cc2)C1=O", "note": "(stereo not drawn)", "Potency": "inconclusive [inhibitor, single point]"}
{"smiles": "N#C/C(=C\\C=C\\c1ccccc1)C(=O)NCc1cccnc1", "Potency": "inconclusive [inhibitor, partial curve, poor fit]"}
{"smiles": "CC(C)(C)NC(=O)C(c1ccncc1)N(Cc1ccc(F)cc1)C(=O)c1ccc(-c2ccccc2)[nH]1", "note": "(stereo not drawn)", "activity change, negative = inhibition": "inactive: -19.6%"}
{"smiles": "Cc1nn(C)c(C)c1/C=C/C(=O)O", "Potency": "inconclusive [activator, single point]"}
{"smiles": "COc1ccc(C(=O)NNC(=S)NC(=O)c2cccnc2)cc1", "activity change, negative = inhibition": "inactive: 3.57%"}
{"smiles": "C#CCOc1c(Br)cc(/C=N\\NC(=O)CN2CCOCC2)cc1OCC", "Potency": "inconclusive [inhibitor, single point]"}
{"smiles": "O=C(CN1CCN(c2ccccc2O)CC1)NC(c1ccccc1)c1ccccc1", "activity change, negative = inhibition": "inconclusive: -15.4% [inhibitor]"}
{"smiles": "CC(=O)c1sc2nc(CSc3nnnn3-c3ccccc3)[nH]c(=O)c2c1C", "Potency": "inconclusive [inhibitor, single point]"}
{"smiles": "O=Cc1c(N2CCOCC2)nc2ccccn2c1=O", "Potency": "inconclusive [inhibitor, single point]"}
{"smiles": "COc1cc(C)nc(OCCNC(=O)COc2ccc(Cl)cc2C)n1", "Potency": "inconclusive [inhibitor, partial curve]"}
{"smiles": "O=C(NC(=S)Nc1nc(-c2ccc(Br)cc2)cs1)c1ccco1", "Potency": "inconclusive [inhibitor, full curve]"}
{"smiles": "CCOCC(=O)Nc1cc(Cl)c(OC)cc1OC", "activity change, negative = inhibition": "inconclusive: 19.3% [activator]"}
{"smiles": "Cc1ccccc1C(=O)NNC(=O)Cc1ccccc1", "Potency": "inconclusive [inhibitor, single point]"}
{"smiles": "Cc1cc(C(=O)Cn2nnc(-c3ccc(Cl)cc3)n2)c(C)n1-c1ccccc1", "activity change, negative = inhibition": "inconclusive: -15.5% [inhibitor]"}
